Data: publication PMC4336329 (PLoS ONE, 2015)
The campaign covered roughly 310,000 compounds. About 14,000 (4.5%) showed an effect of 50% or more. The effect is printed as a negative number. The list shows a part of the results.

target: human ether-à-go-go-related gene (hERG) potassium channel (human, UniProt Q12809); test: primary screen, population patch clamp on CHO cells stably expressing hERG
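Note: peak tail current of the secondary pulse compared with the same well before compound.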

Chain of human ether-à-go-go-related gene (hERG) potassium channel (Q12809 whole entry, looked up): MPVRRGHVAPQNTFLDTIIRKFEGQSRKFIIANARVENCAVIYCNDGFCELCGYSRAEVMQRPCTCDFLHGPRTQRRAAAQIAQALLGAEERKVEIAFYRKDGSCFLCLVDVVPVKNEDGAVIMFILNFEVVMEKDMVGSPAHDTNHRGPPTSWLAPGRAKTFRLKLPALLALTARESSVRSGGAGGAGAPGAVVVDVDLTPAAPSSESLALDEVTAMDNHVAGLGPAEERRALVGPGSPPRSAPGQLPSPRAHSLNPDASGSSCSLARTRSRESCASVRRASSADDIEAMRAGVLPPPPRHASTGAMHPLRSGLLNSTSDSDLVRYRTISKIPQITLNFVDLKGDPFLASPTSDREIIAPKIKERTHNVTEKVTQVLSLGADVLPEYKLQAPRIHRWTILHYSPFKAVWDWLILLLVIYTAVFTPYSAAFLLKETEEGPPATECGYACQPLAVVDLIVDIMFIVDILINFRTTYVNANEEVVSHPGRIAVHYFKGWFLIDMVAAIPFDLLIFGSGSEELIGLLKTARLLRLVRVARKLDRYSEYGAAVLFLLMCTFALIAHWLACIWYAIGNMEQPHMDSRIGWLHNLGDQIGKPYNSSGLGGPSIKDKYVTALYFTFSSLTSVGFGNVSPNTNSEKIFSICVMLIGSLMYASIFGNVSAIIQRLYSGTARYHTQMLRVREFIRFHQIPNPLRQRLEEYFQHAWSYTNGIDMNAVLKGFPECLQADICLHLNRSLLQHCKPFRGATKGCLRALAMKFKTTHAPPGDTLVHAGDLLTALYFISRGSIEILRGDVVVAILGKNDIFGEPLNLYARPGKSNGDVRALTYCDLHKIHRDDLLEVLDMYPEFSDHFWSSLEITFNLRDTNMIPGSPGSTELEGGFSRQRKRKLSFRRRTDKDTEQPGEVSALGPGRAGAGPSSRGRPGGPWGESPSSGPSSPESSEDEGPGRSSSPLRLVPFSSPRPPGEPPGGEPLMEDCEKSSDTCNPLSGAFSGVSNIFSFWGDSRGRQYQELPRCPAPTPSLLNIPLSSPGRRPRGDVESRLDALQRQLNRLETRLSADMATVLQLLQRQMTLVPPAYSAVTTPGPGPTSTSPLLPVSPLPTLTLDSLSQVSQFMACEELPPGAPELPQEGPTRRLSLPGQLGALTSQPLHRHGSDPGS

Structure (SMILES) | hERG current change (%, negative = inhibition) at 10uM
CC(=O)c1csc(CS(=O)(=O)c2ccccn2)n1 | 5.4%
O=C(NCc1ccco1)C1CC(c2ccc(Cl)cc2)=NO1 (stereo not drawn) | 1.47%
COc1ccccc1NC(=O)NC1(C(=O)N2CCN(C)CC2)CCCCC1 | 20.4%
CCCc1cc(C(=O)NC2CCCC2)no1 | 0.175%
Cc1cc(C(=O)OCC(=O)NC2CC2)c2ccccc2n1 | 11.1%
COc1ccc(NS(=O)(=O)c2csc(C(N)=O)c2)cc1 | 14.2%
O=S(=O)(C(=CNc1ccccc1)S(=O)(=O)c1ccccc1)c1ccccc1 | -4.38%
CCOc1ccc(N2C(=O)c3cccnc3C2Nc2ccc(OC)cc2)cc1 (stereo not drawn) | -3.64%
Cc1nc2ccccc2c(=O)n1/N=C1\C(=O)N(C)c2ccccc21 | 31.8%
CN(C)C(=O)CSc1nc(SCC(=O)N(C)C)n(-c2ccccc2)n1 | 6.34%
CC(C)OCCCn1c(=S)[nH]c2ncccc2c1=O | 11%
CCOP(=O)(c1ccccc1)C1(O)CCCCC1 (stereo not drawn) | -1.86%
Cn1c(COc2ccccc2)nnc1SCCN1CCOCC1 | 2.22%
O=C(Nc1cccc(C(F)(F)F)c1)c1cc2c(=O)c3ccccc3oc2nc1C(F)(F)F | 1.61%
COc1cc2c(cc1OC)C1C/C(=N\O)C(CC(C)C)CN1CC2 (stereo not drawn) | -9.75%
O=C(Nc1ccc(-n2cc(Cl)cn2)cc1)c1ccncc1 | 14.2%
CN(C)c1ccc(-c2ccccc2)nn1 | 22.3%
C=CCN(C(=O)COc1ccccc1)c1nnc(-c2ccncc2)s1 | -27.5%
CC(C)CC(C(=O)NC(C)(C)C)N(Cc1cccs1)C(=O)c1snc(C(N)=O)c1N (stereo not drawn) | -0.038%
Cc1cccc(N2CCN(C(=O)c3ccc4c(c3)OCCO4)CC2)c1C | -3.89%
Cl.O=C(OCCN1CCCCC1)c1c[nH]c2ccccc12 | -33.8%
Cc1ccc(C(=O)NC(=O)CSc2nncn2C)cc1 | 6.16%
Clc1ccc2[nH]c3c(c2c1)CCc1cn[nH]c1-3 | -0.801%

Structure (SMILES) | hERG current change (%, negative = inhibition) at 10uM
O=C(OCC(=O)N1CCOCC1)c1cccc(F)c1 | 28.8%
CCOc1ccc(NC(=O)C2CC(=O)N(C)C(=Nc3ccc4c(c3)OCO4)S2)cc1 (stereo not drawn) | 14.9%
CN1C(=O)NC(c2ccc(C(F)(F)F)cc2)C2=C1CC(C)(C)CC2=O (stereo not drawn) | -5.75%
Cc1ncc(CN2CCC(N3CCC(C(=O)N4CCCC4)CC3)CC2)s1 | -18.1%
CCn1c(O)c(N=NC(=O)Cn2ccc(C(F)(F)F)n2)c2ccccc21 | -40.9%
COc1ccc(/C=N/NC(=O)c2ccc(COCC(F)(F)C(F)F)cc2)cc1 | -0.999%
O=C(Nc1ccc(Br)cc1)Nn1cnnc1 | 14.2%
O=C(O)c1ccccc1NC(=O)C1CCN(S(=O)(=O)c2cccc3nsnc23)CC1 | 8.08%
c1ccc(Cc2nc3ccccc3o2)cc1 | 3.65%
CC(C)CCNC(=O)C1CC(c2ccccc2C(F)(F)F)=NO1 (stereo not drawn) | -8.08%
CCN(CC)C(=O)c1ccc(NS(=O)(=O)c2ccc3[nH]c(=O)[nH]c3c2)cc1 | 15.4%
CSC(=NS(=O)(=O)c1ccccc1)SC | 15.5%
CCn1c(C2CC(=O)N(c3cc(C)cc(C)c3)C2)nc2ccccc21 (stereo not drawn) | -2.71%
CCOC(=O)C(C)(C)Sc1nc2c(cnn2-c2ccc(F)cc2)c(=O)[nH]1 | 12.7%
Cc1cccc2sc(N3CCN(C(=O)C4COc5ccccc5O4)CC3)nc12 (stereo not drawn) | -31.3%
COCCCNC(=O)C(CC(N)=O)NC(=O)OCc1ccccc1 (stereo not drawn) | 13.2%
COc1ccc(CN2CCN(C(C)C(=O)N(C)Cc3cccc(F)c3)CC2)cc1OC.O=C(O)C(=O)O (stereo not drawn) | -61%
COc1ccc(C(=S)N2CCOCC2)cc1OC(=O)c1cc([N+](=O)[O-])c(C)c([N+](=O)[O-])c1 | -2.94%
COc1cc(C(=S)N2CCOCC2)cc(OC)c1OC | 6.11%
Clc1cccc(N2CCNCC2)c1Cl | -3.75%
COc1ccc(C(=O)NC(=S)Nc2ccc(CN3CCCCC3)cc2)cc1Cl | -42.7%
CC(NC(=O)COC(=O)/C(=C/c1cccs1)c1cccs1)c1ccccc1 (stereo not drawn) | 1.71%
